Results published in the supplement of paper PMC10369915.
The other results are listed elsewhere or left out. Rule as the data show it: active = 3.2 or more and inactive = the rest. Only a few entries rise above the background.

molecular target: SHP2 C-SH2 domain E139D; experiment: enrichment score (SH2-bound / input frequency) (ratio); bacterial display of known human phosphotyrosine sites (pTyr-Var adds point mutants) read by sequencing; higher = stronger binding; tyrosines were phosphorylated by kinases first; conditions: peptide library: Human pTyr
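Also: displayed peptides selected on beads carrying the immobilized SH2 domain, with library peptides lacking any tyrosine serving as negative controls.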

Q: Which enrichment score does the source give for TQQTEEQYFQFLAKF [LRRK1_HUMAN_971] here?
A: inactive: 1.58

Q: FAGREEFYSTHPHFM [LRRK2_HUMAN_1402] was tested. Which enrichment score did it give?
A: inactive: 0.657

Q: EKRHSLEYSLRIQKV [LSAMP_HUMAN_94] was tested. Which enrichment score did it give?
A: inactive: 2.13

Q: Which enrichment score does the source give for DIARASAYRRGDRAL [LTK_HUMAN_677_YA] here?
A: inactive: 0.701

Q: With FTEAQKQYWVCNSSD [LY96_HUMAN_22] as the binder, how does the enrichment score read?
A: inactive: 1.19

Q: With AAQSRDAYNFPLALA [ANDR_HUMAN_365_YA] as the binder, how does the enrichment score read?
A: inactive: 0.727

Q: Which enrichment score does the source give for YTATEGQYQQQPGGG [LYN_HUMAN_508] here?
A: inactive: 0.522

Q: TTTRLGIYTVLFERL [M2OM_HUMAN_102] was tested. Which enrichment score did it give?
A: inactive: 2.5

Q: With TKGPNGVYDFSQAHN [MAGD1_HUMAN_92] as the binder, how does the enrichment score read?
A: inactive: 0.813

molecular target: SHP2 C-SH2 domain wild-type; experiment: as above; conditions: peptide library: Human pTyr

Q: Which enrichment score does the source give for TQQTEEQYFQFLAKF [LRRK1_HUMAN_971] here?
A: inactive: 1.42

Q: For FAGREEFYSTHPHFM [LRRK2_HUMAN_1402], which enrichment score is on record?
A: inactive: 0.695

Q: For EKRHSLEYSLRIQKV [LSAMP_HUMAN_94], which enrichment score is on record?
A: inactive: 1.83

Q: With DIARASAYRRGDRAL [LTK_HUMAN_677_YA] as the binder, how does the enrichment score read?
A: inactive: 0.703

Q: FTEAQKQYWVCNSSD [LY96_HUMAN_22] was tested. Which enrichment score did it give?
A: inactive: 1.16

Q: For AAQSRDAYNFPLALA [ANDR_HUMAN_365_YA], which enrichment score is on record?
A: inactive: 0.639

Q: YTATEGQYQQQPGGG [LYN_HUMAN_508] was tested. Which enrichment score did it give?
A: inactive: 0.486

Q: With TTTRLGIYTVLFERL [M2OM_HUMAN_102] as the binder, how does the enrichment score read?
A: inactive: 2.43

Q: Which enrichment score does the source give for TKGPNGVYDFSQAHN [MAGD1_HUMAN_92] here?
A: inactive: 0.513

molecular target: SHP2 N-SH2 domain L43F; experiment: as above; conditions: peptide library: Human pTyr

Q: Which enrichment score does the source give for TQQTEEQYFQFLAKF [LRRK1_HUMAN_971] here?
A: inactive: 1.52

Q: With FAGREEFYSTHPHFM [LRRK2_HUMAN_1402] as the binder, how does the enrichment score read?
A: inactive: 0.924

Q: Which enrichment score does the source give for EKRHSLEYSLRIQKV [LSAMP_HUMAN_94] here?
A: inactive: 2.11

Q: For DIARASAYRRGDRAL [LTK_HUMAN_677_YA], which enrichment score is on record?
A: inactive: 0.548

Q: For FTEAQKQYWVCNSSD [LY96_HUMAN_22], which enrichment score is on record?
A: inactive: 1.11

Q: For AAQSRDAYNFPLALA [ANDR_HUMAN_365_YA], which enrichment score is on record?
A: inactive: 0.539

Q: YTATEGQYQQQPGGG [LYN_HUMAN_508] was tested. Which enrichment score did it give?
A: inactive: 0.513

Q: TTTRLGIYTVLFERL [M2OM_HUMAN_102] was tested. Which enrichment score did it give?
A: inactive: 2.47

Q: For TKGPNGVYDFSQAHN [MAGD1_HUMAN_92], which enrichment score is on record?
A: inactive: 0.617

molecular target: SHP2 N-SH2 domain T42A; experiment: as above; conditions: peptide library: Human pTyr

Q: Which enrichment score does the source give for TQQTEEQYFQFLAKF [LRRK1_HUMAN_971] here?
A: inactive: 2.08

Q: Which enrichment score does the source give for FAGREEFYSTHPHFM [LRRK2_HUMAN_1402] here?
A: inactive: 0.543

Q: With EKRHSLEYSLRIQKV [LSAMP_HUMAN_94] as the binder, how does the enrichment score read?
A: inactive: 1.95

Q: For DIARASAYRRGDRAL [LTK_HUMAN_677_YA], which enrichment score is on record?
A: inactive: 0.732

Q: FTEAQKQYWVCNSSD [LY96_HUMAN_22] was tested. Which enrichment score did it give?
A: inactive: 1.16

Q: With AAQSRDAYNFPLALA [ANDR_HUMAN_365_YA] as the binder, how does the enrichment score read?
A: inactive: 0.614

Q: Which enrichment score does the source give for YTATEGQYQQQPGGG [LYN_HUMAN_508] here?
A: inactive: 0.671

Q: For TTTRLGIYTVLFERL [M2OM_HUMAN_102], which enrichment score is on record?
A: inactive: 2.2

Q: TKGPNGVYDFSQAHN [MAGD1_HUMAN_92] was tested. Which enrichment score did it give?
A: inactive: 0.64

molecular target: SHP2 N-SH2 domain T52S; experiment: as above; conditions: peptide library: Human pTyr

Q: How did the enrichment score turn out when TQQTEEQYFQFLAKF [LRRK1_HUMAN_971] was run?
A: inactive: 1.76

Q: With FAGREEFYSTHPHFM [LRRK2_HUMAN_1402] as the binder, how does the enrichment score read?
A: inactive: 0.658

Q: Which enrichment score does the source give for EKRHSLEYSLRIQKV [LSAMP_HUMAN_94] here?
A: inactive: 2.22

Q: With DIARASAYRRGDRAL [LTK_HUMAN_677_YA] as the binder, how does the enrichment score read?
A: inactive: 0.794

Q: For FTEAQKQYWVCNSSD [LY96_HUMAN_22], which enrichment score is on record?
A: inactive: 1.29

Q: For AAQSRDAYNFPLALA [ANDR_HUMAN_365_YA], which enrichment score is on record?
A: inactive: 0.613

Q: For YTATEGQYQQQPGGG [LYN_HUMAN_508], which enrichment score is on record?
A: inactive: 0.492

Q: TTTRLGIYTVLFERL [M2OM_HUMAN_102] was tested. Which enrichment score did it give?
A: inactive: 2.74

Q: With TKGPNGVYDFSQAHN [MAGD1_HUMAN_92] as the binder, how does the enrichment score read?
A: inactive: 0.743

molecular target: SHP2 N-SH2 domain wild-type; experiment: as above; conditions: peptide library: Human pTyr

Q: TQQTEEQYFQFLAKF [LRRK1_HUMAN_971] was tested. Which enrichment score did it give?
A: inactive: 1.64

Q: Which enrichment score does the source give for FAGREEFYSTHPHFM [LRRK2_HUMAN_1402] here?
A: inactive: 0.583

Q: How did the enrichment score turn out when EKRHSLEYSLRIQKV [LSAMP_HUMAN_94] was run?
A: inactive: 2.5

Q: DIARASAYRRGDRAL [LTK_HUMAN_677_YA] was tested. Which enrichment score did it give?
A: inactive: 0.673

Q: For FTEAQKQYWVCNSSD [LY96_HUMAN_22], which enrichment score is on record?
A: inactive: 1.31

Q: With AAQSRDAYNFPLALA [ANDR_HUMAN_365_YA] as the binder, how does the enrichment score read?
A: inactive: 0.572

Q: Which enrichment score does the source give for YTATEGQYQQQPGGG [LYN_HUMAN_508] here?
A: inactive: 0.634

Q: With TTTRLGIYTVLFERL [M2OM_HUMAN_102] as the binder, how does the enrichment score read?
A: active: 3.24

Q: With TKGPNGVYDFSQAHN [MAGD1_HUMAN_92] as the binder, how does the enrichment score read?
A: inactive: 0.874
